According to patent US20200207868A1 (UNIVERSITY OF SASKATCHEWAN, published 2020):

B1: anti-HER3 scFv-Fc (Fc fusion)
chain: SDIQMTQSPSSLSASVGDRVTITCRASQGISNYLAWYQQKPGKAPKLLIYAASSLQSGVPSRFSGSRSGTDFTLTISSLQPEDFATYYCQQYGWLPLTFGQGTKVEIKGGGGSGGGGSGGGGSEISEVQLVESGGGLVQPGGSLRLSCAASGFTFSSYGMHWVRQAPGKGLEWVAVISYDGSNKYYADSVKGRFTISRDNSKNTLYLQMNSLRAEDTAVYYCARTDPYSLGGYYFDYWGQGTLVTVSS[human IgG1 Fc not given here]
B2: anti-HER3 scFv-Fc labeled with IRDye800CW (Fc fusion)
chain: B1 chain
notes: also called IRDye800CW-labeled scFv-Fc

Assays:
[1] = biological target: HER3 (as used in the biolayer interferometry of Example 2) (UniProt P21860 part only, limits assumed); experiment: BLI
[2] = biological target: T1, recombinant human HER3-Fc chimera protein (R&D Systems) (human, UniProt P21860 part only); experiment: BLI (Octet Red), antibody on AR2G sensor, HER3-Fc 10-263 nM, 1:1 fit
T1 construct: extracellular domain; Bought from R&D Systems; also called recombinant human HER3 extracellular domain; recombinant HER3; not shown: Fc part of the purchased chimera
Procedure: Binding kinetics were measured using an Octet Red instrument (ForteBio, Menlo Park, Calif.), following the manufacturer's protocol. Binding assays were performed in 96-well microtiter plates at 30° C. with sample plate orbital motion agitation at 1000 rpm. All washes, dilutions, and measurements were performed in phosphate buffered saline (PBS), pH 7.4. The IgG and antibody fragments were immobilized on amine-reactive second generation (AR2G) sensors using the manufacturer's protocol at pH 5 followed by quenching with 1 M ethanolamine, pH 8.5. […] Binding was monitored by placing sensors into wells for 5 min, followed by dissociation in PBS for 10 min. KD, kON, and kOFF were determined with ForteBio Data Analysis software v7.1.0.33 through locally fitting the processed data using a 1:1 binding model.

[3] = biological target: T1, recombinant human HER3-Fc chimera …; experiment: BLI, IRDye800CW-labeled antibody

Row | Binder | Kd [1] [nM] | koff [1] [s⁻¹] | kon [1] [M⁻¹ s⁻¹] | Kd [2] [nM] | koff [2] [s⁻¹] | kon [2] [M⁻¹ s⁻¹] | Kd [3] [nM]
1 | B1 | 0.57 | 4.6e-05 | 77800 | 0.6 | 5e-05 | 78000 | –
2 | B2 | – | – | – | – | – | – | 0.9
